# Assay results taken from PubChem BioAssay (Tox21).
# Where “and” joins values, the source holds several entries; their conditions need not be identical. Identical values can stand only once. Inconclusive means that the source gave no clear call. Such entries were picked first, then a sample of the others. A potency beside an inconclusive call is a rough fit, not a confirmed value. Calls of active or inactive are those of the source. Unless noted, calls come from the whole dose curve; as a rule, active = well fitted curve in the direction sought with a large enough effect in the repeat runs; inconclusive = weak or mixed curves; inactive = no such curve, though single readings can be large; an effect the other way counts as inactive or inconclusive.
# Legend:
# [1] = qHTS assay to identify small molecule antagonists of the peroxisome proliferator-activated receptor gamma (PPARg) signaling pathway - cell viability counter screen (AID 743194); details: PPARg-bla HEK293H viability, CellTiter-Glo luminescence, 17 h; Potency: co-treated with 50 nM rosiglitazone unless noted; activity change, negative = cytotoxicity: at 62.6 µM (top of the series), co-treated with 50 nM rosiglitazone unless noted; note: nearly all actives have a fitted effect of over 55% in size; for activity change, negative = cytotoxicity: % is set by controls: 0 for no effect and ±100 for the full control effect
# Summary of the method: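 Cytotoxicity counter screen in PPARg-bla HEK293H cells, same wells as reporter assay. Compounds plus 50 nM rosiglitazone (final) for 17 h at 37 C, then viability read by CellTiter-Glo luminescence.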
# [2] = qHTS assay for small molecule agonists of the antioxidant response element (ARE) signaling pathway (AID 743202; active = well fitted activation curve with a large enough effect in the signal ratio in the repeat runs, not every such curve was filed as active; inconclusive = weak or mixed curves, or effect the other way; inactive = no such curve, though single readings can be large or run the other way; the % refers to the signal ratio; for activation: % is set by controls: 0 for no effect and ±100 for the full control effect); details: HepG2 ARE-bla reporter, beta-lactamase FRET, 16 h
# Summary of the method: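 Agonist mode reporter screen: HepG2 cells with ARE-controlled beta-lactamase are incubated with test compounds for 16 h at 37 C, and beta-lactamase activity is measured as fluorescence of cleaved B/G FRET substrate.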
# [3] = qHTS assay for small molecule agonists of the antioxidant response element (ARE) signaling pathway - cell viability counter screen (AID 743203; calls by dose curve; note: nearly all actives have a fitted effect of over 55% in size); details: ARE-bla HepG2 viability, CellTiter-Glo luminescence, 16 h; viability change, negative = cytotoxic: at 73.3 µM (top of the series)
# Summary of the method: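 Seeded at 2,000 cells/well, ARE-bla HepG2 cells were incubated 5 hrs before compound addition. After 16 hrs of treatment at 37C with 5% CO2, CellTiter-Glo reagent was added and luminescence read 30 min later.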
# [4] = qHTS assay for small molecule activators of the heat shock response signaling pathway - cell viability counter screen (AID 743209); details: HSE-bla HeLa viability, CellTiter-Glo luminescence, 5 h; activity change, negative = cytotoxicity: at 62.6 µM (top of the series) unless noted; note: nearly all actives have a fitted effect of over 50% in size
# Summary of the method: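 First, HSE-bla HeLa cells were seeded at 1500 cells/well and kept overnight at 37 C. Next, compounds were pinned in and incubated 5 h. After the FRET substrate step, CellTiter-Glo was added and luminescence read 30 min later.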
# [5] = qHTS assay for small molecule activators of the heat shock response signaling pathway (AID 743210; active = well fitted activation curve with a large enough effect in the signal ratio in the repeat runs, with a control signal flat, not every such curve was filed as active; inconclusive = weak or mixed curves; the % refers to the signal ratio); details: HeLa HSE-bla reporter, beta-lactamase ratio, 5 h; activation: at 62.6 µM (top of the series) unless noted
# Summary of the method: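 Quantitative high-throughput format using an engineered HeLa line in which heat shock response elements drive beta-lactamase; after 5 h with compound, cells received a B/G FRET substrate and fluorescence was read.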
# [6] = qHTS assay to identify small molecule agonists of the peroxisome proliferator-activated receptor delta (PPARd) signaling pathway - cell viability counter screen (AID 743211); details: PPARd-bla HEK293H viability, CellTiter-Glo luminescence, 17 h; activity change, negative = cytotoxicity: at 62.6 µM (top of the series); note: nearly all actives have a fitted effect of over 55% in size
# Summary of the method: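 HEK293H PPARd-bla, 3000 cells/well; 5 h preincubation 37C/5% CO2; cpd in DMSO, 17 h 37C; B/G FRET substrate 2 h RT; CellTiter-Glo 30 min RT, luminescence.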
# [7] = target: Peroxisome proliferator-activated receptor delta (Homo sapiens) (UniProt Q03181); assay: qHTS assay to identify small molecule agonists of the peroxisome proliferator-activated receptor delta (PPARd) signaling pathway (AID 743212; calls by dose curve;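 note: HEK293H cells with PPARd UAS beta-lactamase reporter GeneBLAzer system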; for activation: % is set by controls: 0 for no effect and ±100 for the full control effect); details: HEK293H PPARd-UAS-bla, beta-lactamase FRET ratio, 17 h; activation: at 62.6 µM (top of the series) unless noted
# Summary of the method: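 Quantitative high-throughput agonist screen in a HEK293H beta-lactamase reporter line under UAS control. Compounds in DMSO, at 37 C. Fluorescence read after 2 h with FRET substrate at room temperature.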
# [8] = qHTS assay to identify small molecule antagonists of the peroxisome proliferator-activated receptor delta (PPARd) signaling pathway - cell viability counter screen (AID 743213); details: PPARd-bla HEK293H viability, CellTiter-Glo luminescence, 17 h; viability change, negative = cytotoxic: at 62 µM (top of the series) unless noted; note: nearly all actives have a fitted effect of over 50% in size
# Summary of the method: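 Luminescence from CellTiter-Glo, added after the bla read and incubated 30 min at room temperature, gives viability of HEK293H PPARd-bla cells exposed to compounds for 17 h at 37 C with 300 nM L165041.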
# [9] = target: Bile acid receptor (Homo sapiens) (UniProt Q96RI1); assay: qHTS assay to identify small molecule antagonists of the farnesoid-X-receptor (FXR) signaling pathway (AID 743217; active = well fitted inhibition curve with a large enough effect in the signal ratio in the repeat runs, not every such curve was filed as active; inconclusive = weak or mixed curves, or effect the other way; inactive = no such curve, though single readings can be large or run the other way; the % refers to the signal ratio); details: HEK293T FXR-UAS-bla, beta-lactamase ratio, CDCA-stimulated, 16 h; activity change, negative = inhibition: at 62.6 µM (top of the series) unless noted
# Summary of the method: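 Antagonist mode against 50 uM (final) chenodeoxycholic acid stimulation in FXR-bla HEK 293T cells, 16 h at 37 °C. Inhibition detected as reduced beta-lactamase activity via LiveBLAzer B/G FRET fluorescence after 2 h at room temperature.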
# [10] = target: Peroxisome proliferator-activated receptor delta (Homo sapiens) (UniProt Q03181); assay: qHTS assay to identify small molecule antagonists of the peroxisome proliferator-activated receptor delta (PPARd) signaling pathway (AID 743215; active = well fitted inhibition curve with a large enough effect in the signal ratio in the repeat runs, not every such curve was filed as active; inconclusive = weak or mixed curves, or effect the other way; inactive = no such curve, though single readings can be large or run the other way; the % refers to the signal ratio;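 note: cells stimulated with agonist L165041 at 300 nM final during compound exposure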; for ratio activity, negative = inhibition: % is set by controls: 0 for no effect and ±100 for the full control effect); details: HEK293H PPARd-UAS-bla, beta-lactamase FRET ratio, antagonist, 17 h; ratio activity, negative = inhibition: at 62 µM (top of the series) unless noted
# Summary of the method: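 Inhibition of L165041-driven (300 nM final) PPARd signaling is scored in HEK293H UAS-bla cells. Exposure lasts 17 h at 37 C; beta-lactamase activity is then read by FRET substrate fluorescence after 2 h at room temperature.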
# [11] = activation: at 73.3 µM (top of the series) unless noted
# Potency is the fitted concentration of half-maximal effect; tags give direction and shape of the fitted curve or compound fluorescence and quenching.
# Sequence of UniProt Q03181 (Q03181 whole entry, looked up): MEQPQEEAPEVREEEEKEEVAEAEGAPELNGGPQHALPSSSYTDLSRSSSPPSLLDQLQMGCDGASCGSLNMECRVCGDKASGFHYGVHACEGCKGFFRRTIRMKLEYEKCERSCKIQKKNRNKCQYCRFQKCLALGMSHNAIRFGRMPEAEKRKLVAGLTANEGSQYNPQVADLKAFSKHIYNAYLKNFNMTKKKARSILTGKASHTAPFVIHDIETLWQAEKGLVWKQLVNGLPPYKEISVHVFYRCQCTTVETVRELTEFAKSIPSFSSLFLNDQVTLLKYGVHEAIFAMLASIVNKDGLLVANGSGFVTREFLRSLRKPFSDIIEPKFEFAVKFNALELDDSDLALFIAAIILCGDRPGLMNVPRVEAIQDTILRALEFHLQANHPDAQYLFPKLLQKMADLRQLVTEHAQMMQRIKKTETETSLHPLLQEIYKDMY
# Sequence of UniProt Q96RI1 (Q96RI1 whole entry, looked up): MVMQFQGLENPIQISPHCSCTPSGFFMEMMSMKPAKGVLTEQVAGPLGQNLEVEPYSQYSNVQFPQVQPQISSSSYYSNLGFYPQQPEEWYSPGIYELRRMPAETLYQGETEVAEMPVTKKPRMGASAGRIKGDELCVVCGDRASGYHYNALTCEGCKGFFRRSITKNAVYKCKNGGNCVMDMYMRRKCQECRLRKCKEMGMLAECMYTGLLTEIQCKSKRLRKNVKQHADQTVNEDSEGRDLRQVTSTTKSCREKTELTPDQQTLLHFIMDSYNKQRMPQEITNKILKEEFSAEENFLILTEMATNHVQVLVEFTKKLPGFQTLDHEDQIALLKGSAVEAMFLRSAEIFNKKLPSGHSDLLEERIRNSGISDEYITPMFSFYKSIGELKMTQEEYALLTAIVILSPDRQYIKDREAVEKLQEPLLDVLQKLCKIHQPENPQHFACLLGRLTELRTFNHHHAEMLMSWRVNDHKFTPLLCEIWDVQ
smiles,measurement,setting,value
C[C@@H]1O[C@@H](O[C@H]2C[C@@H](O)[C@]3(CO)[C@H]4[C@H](O)C[C@]5(C)[C@@H](C6=CC(=O)OC6)CC[C@]5(O)[C@@H]4CC[C@]3(O)C2)[C@H](O)[C@H](O)[C@H]1O,Potency,[1],active: 13.1 nM and active: 119 nM
same,Potency,[2]; [11],"inconclusive: 103 nM [rising, full curve] and inconclusive: 1.19 µM [rising, full curve]"
same,Potency,[3],active: 6.5 nM and active: 133 nM
ClC(Cl)=C(c1ccc(Cl)cc1)c1ccc(Cl)cc1,Potency,[1],"inconclusive: 63.2 µM [cytotoxic, single point]"
same,Potency,[2]; [11],"inconclusive: 22.2 µM [rising, partial curve, poor fit]"
same,activation,[2]; [11],inconclusive: 39.2%
same,Potency,[3],"inconclusive: 78.8 µM [cytotoxic, single point] and inconclusive: 54.5 µM [cytotoxic, partial curve]"
same,Potency,[4],active: 50.2 µM and active: 17.4 µM
same,Potency,[5],inconclusive: 56.3 µM and inconclusive: 43.6 µM [partial curve]
same,Potency,[6],"inconclusive: 56.3 µM [cytotoxic, single point] and active: 24.5 µM"
same,activation,[7],inconclusive: 10.6%
same,Potency,[8],"inconclusive: 19.5 µM [rising, partial curve, poor fit]"
same,Potency,[9],"inconclusive: 50.2 µM [inhibitor, partial curve] and inconclusive: 17.4 µM [inhibitor]"
CCOP(=O)(OCC)Oc1nc(Cl)c(Cl)cc1Cl,Potency,[1],"inconclusive: 1.54 µM [cytotoxic, partial curve, poor fit]"
same,Potency,[2]; [11],"inconclusive: 54.2 µM [falling, partial curve]"
same,Potency,[3],"inconclusive: 30.5 µM [cytotoxic, partial curve]"
same,Potency,[5],"inconclusive: 8.66 µM [rising, full curve]"
same,Potency,[6],active: 38.7 µM
same,Potency,[7],"inconclusive: 54.6 µM [partial curve, poor fit]"
same,Potency,[8],"inconclusive: 7.71 µM [cytotoxic, partial curve, poor fit]"
same,Potency,[10],active: 12.2 µM
BrCC(Br)(Br)Br,Potency,[1],"inconclusive: 25.5 µM [cytotoxic, partial curve, poor fit]"
same,Potency,[2]; [11],"inconclusive: 79.8 µM [rising, partial curve, poor fit]"
same,Potency,[3],"inconclusive: 71.1 µM [cytotoxic, single point]"
same,Potency,[5],inconclusive: 12.3 µM [activator]
O=CC(Br)(Br)Br,Potency,[1],active: 6.14 µM
same,Potency,[2]; [11],active: 1.72 µM
same,Potency,[3],active: 54.3 µM
same,Potency,[4],active: 6.14 µM
same,Potency,[5],inconclusive: 28.5 µM
same,Potency,[7],inconclusive: 21.8 µM
same,Potency,[8],active: 48.8 µM
same,Potency,[10],"inconclusive: 34.6 µM [rising, partial curve]"
same,Potency,[9],"inconclusive: 24.5 µM [rising, full curve]"
O=C1C(Cl)=C(Cl)C(=O)c2ccccc21,Potency,[1],active: 39 µM and active: 11 µM
same,Potency,[2]; [11],"inconclusive: 30.6 µM [falling, partial curve]"
same,activation,[2]; [11],inconclusive: -64.6% [at 94.8 µM]
same,Potency,[3],active: 68.8 µM and active: 21.7 µM
same,Potency,[4],active: 27.6 µM and active: 12.3 µM
same,Potency,[5],inconclusive: 18.8 µM and inconclusive: 38.9 µM
same,Potency,[8],active: 9.8 µM and active: 6.17 µM
same,Potency,[10],inconclusive: 6.94 µM [partial curve] and inconclusive: 8.71 µM
c1ccc(NNc2ccccc2)cc1,Potency,[1],inactive
same,activation,[2]; [11],inconclusive: 15.6%
same,activation,[2]; at 94.8 µM (top of the series),inactive: -2.55%
same,Potency,[8],"inconclusive: 2.21 µM [cytotoxic, single point]"
same,"ratio activity, negative = inhibition",[10],inconclusive: 3.09% [at 80.4 µM]
CNC(=O)N(C)c1nnc(C(C)(C)C)s1,Potency,[1],"inconclusive: 0.692 µM [rising, full curve, poor fit]"
same,Potency,[2]; [11],inactive
O=S1OCC2C(CO1)C1(Cl)C(Cl)=C(Cl)C2(Cl)C1(Cl)Cl (centres undefined),Potency,[1],active: 55 µM and active: 24.5 µM
same,Potency,[2]; [11],inconclusive: 68.7 µM [single point] and inconclusive: 61.1 µM
same,Potency,[3],"inconclusive: 68.7 µM [cytotoxic, single point]"
same,Potency,[4],"inconclusive: 61.7 µM [cytotoxic, single point]"
same,Potency,[5],inconclusive: 56.3 µM and inconclusive: 43.6 µM
same,Potency,[6],"inconclusive: 55 µM [cytotoxic, single point] and active: 24.5 µM"
same,Potency,[8],"inconclusive: 55 µM [cytotoxic, single point] and active: 54.9 µM"
Clc1ccccc1-c1ccccc1Cl,Potency,[1],"inconclusive: 24.9 µM [cytotoxic, partial curve, poor fit]"
same,Potency,[2]; [11],inactive
N#CSCSC#N,Potency,[1],"inconclusive: 39.8 µM [cytotoxic, partial curve, poor fit] and active: 27.3 µM"
same,Potency,[2]; [11],"inconclusive: 62.5 µM [falling, single point] and inconclusive: 67.9 µM [falling, single point]"
same,Potency,[3],active: 55.7 µM and active: 48.1 µM
same,Potency,[5],inconclusive: 43 µM and inconclusive: 25.3 µM
same,Potency,[7],inconclusive: 56.2 µM [single point] and inconclusive: 61.1 µM [single point]
same,Potency,[8],active: 44.6 µM and active: 48.5 µM
